We go through 88 sequences from the supplement of paper PMC11417369.

The other results are listed elsewhere or left out.

In this assay the test system is PfAP2-HC AP2 domain (GST-tagged). Briefly: gcPBM binding intensity (ln(normalized median fluorescence intensity)); higher = stronger DNA binding. The procedure, abridged:
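Probes on an Agilent 4 × 180k array were primer-extended, double-stranded and 36 bp long, taken from intergenic genomic regions, with negative controls added. GST-tagged P. falciparum DNA-binding domains from E. coli, about 25 μg on average, were applied to the array for 1 h in 1× PBS containing 1% milk, 0.2 mg/ml BSA, 0.5% salmon testes DNA and 0.03% Triton X-100. Binding intensity, obtained after Alexa488 anti-GST antibody detection and a 488 nm scan, is the highest Masliner-normalised natural-log median intensity across replicate spots of either probe orientation.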
With “ATATAATATATGTAAGTGCGCTTATAAATAAAACGA [GTGCAC_site9841]”, the “gcPBM binding intensity (ln)” value was 10.
Under “TATATAGAAAACAAGGCATGCAAATAACAAATTGTG [TGCATGCA_site473]” stands 10.2; under “AACAAAAATGAAAAAACACACATAACATATATAAAT [CACACA_site740]”, 10.1.
Consider “AAAAAAAAAAAAAAAGTGCACTGAAAATATATTGAA [GTGCAC_site9395]”, for which the “gcPBM binding intensity (ln)” value is 9.76.
“TTTTTAATTATTTATATAACGATAATCCTTACATAA [TGCATGCA_negctrl_site180]”: the “gcPBM binding intensity (ln)” value worked out at 9.22.
Consider “ATAATATAAATAAAAACACACACAATCGTACATATA [CACACA_site9223]”, for which the “gcPBM binding intensity (ln)” value was 10.2.
Consider “ATAAATATATATTTACGTACATATTATATATATATA [XGTACX_site6172]”, for which the “gcPBM binding intensity (ln)” value turned out to be 9.61.
“AAAAAAATTTCACATTGTACTTTAATAATATACTAC [XGTACX_site7264]”: the “gcPBM binding intensity (ln)” value came to 9.64.
Regarding “ACATATAAATTGTGTACACATATATATATATTTTTT [CACACA_site5946]”, the “gcPBM binding intensity (ln)” value worked out at 9.84.
Under “GAATGCATGTAAATATGTACATATATTTAAAAATTT [XGTACX_site6032]” stands 9.63; under “TGTTAAAAGGTTAAATTAAAATAACCTCCGGAAATT [GTGCAC_negctrl_site236]”, 9.4; under “TTTATATGTATACAAACATATAAATATAAATGTATT [TGCATGCA_negctrl_site346]”, 9.59.
Turning to “TGTTCTATGATTTGTACACACTTTTTTTTAAAATGC [CACACA_site5558]”, the “gcPBM binding intensity (ln)” value was determined as 9.78.
Under “TATATATACATATACACACACACACCGATATATATA [CACACA_site8706]” stands 10.5; under “GTTTTGTACATATTCTCACACATATAAAAATACCCA [CACACA_site4446]”, 9.68.
Under “TTCATAATAAAAAGGTGTACATATATATATATATAT [XGTACX_site2829]” stands 10.1; under “AAGCATTTAATGTTTTATATAACATGTATTTTTTAT [CACACA_negctrl_site673]”, 9.57; under “TATCGAGCCATTTTTACATGCAATTATACATAATTT [TGCATGCA_site987]”, 9.71.
Under “TTCAAATAATTTAAATGTACGTTGCTTTATTAAAAG [XGTACX_site3674]” stands 9.19; under “CATGTATACTATAATACACACTATAAAATATACACC [CACACA_site7121]”, 9.86.
With “TAAAATGAATATAGGTGTACTTAAAAAAAAGTAAAA [XGTACX_site4613]”, the “gcPBM binding intensity (ln)” value was determined as 9.61.
Take “TAAATTCTTTATAATCGTACATAAATAGAAAAATAA [XGTACX_site601]”: the “gcPBM binding intensity (ln)” value was 9.4.
Under “TAAAAGAAATAATATACACACATATATAAAAATAAA [CACACA_site1329]” stands 9.92; under “AAATATATGTTATATGTGCACTTTTTTTTTTTTTTT [GTGCAC_site9667]”, 9.58; under “CTTACTTACTTACTCACACACATATACAAAGAAAAA [CACACA_site3347]”, 10.
Under “TTTTACTAAATATATACACACATTATACATATATAT [CACACA_site9081]” stands 10.2; under “ATGATGAAAATAGAAATACACACTAAAAAATAAAAT [CACACA_site1136]”, 9.9.
Under “ATAAATAATAAAAAATGTACACATATAAATATAAAG [XGTACX_site727]” stands 10.2; under “AAAACATGTTCAACATGTACACAACAGGATGAATAT [XGTACX_site506]”, 9.85.
As for “AGGAAACAAGAAATGAAGAATCATGTAGAAGGCCCA [GTGCAC_negctrl_site187]”, the “gcPBM binding intensity (ln)” value was 9.71.
Under “TATATAACCGAGTGCACACACAAAAAAAAAGTGAAC [CACACA_site6806]” stands 10.2; under “AATAATATAAATATTACACACTAATTGTATTATAGA [CACACA_site6347]”, 9.72.
Under “TATTAAATATTGTATACATGCAAATACTAGAAAATT [TGCATGCA_site370]” stands 9.59.
Under “TAAATTAAAAAAAATACACACACACCGACACATATA [CACACA_site9084]” stands 10.6.
For “AAAAAGAAGAATAATACACACAAATTACTTTATATA [CACACA_site6984]”, the “gcPBM binding intensity (ln)” value was 9.87.
Under “TTCGTAACTGATTCAACACACAAAAGGGGGAAAATT [CACACA_site1754]” stands 9.72; under “ATATATATATATATGTGTACATATATTAAGATATAT [XGTACX_site1065]”, 9.79; under “AATTACAAATATTCATGTACATATTTATAAATACAT [XGTACX_site5430]”, 9.7.
Under “ATATTATAGAAATATACACACATTGTTTTATAGCAT [CACACA_site7177]” stands 9.8; under “TATGTTATATAATATTGTACACAAAATGGTTTCTAT [XGTACX_site7686]”, 9.63; under “ATATTACGCACAAAAAAAAAAAAAAAAAAAAAAAAA [CACACA_negctrl_site941]”, 9.1.
As to “AAAATTAAAATTTTCACACAGATATATTTACAATTT [CACACA_site5692]”, the “gcPBM binding intensity (ln)” value turned out to be 9.63.
Take “ATGATGTGCTTTAAAAGTACTTAAGTTATATTCTTT [XGTACX_site7127]”: the “gcPBM binding intensity (ln)” value is 9.7.
Under “ATATATATGAAACACACACACAAAAAAAAAAAAAAA [CACACA_site3647]” stands 10.3.
As to “ATAACACAAAATTGTTGTACACGTGTTAATAAGTGA [XGTACX_site4452]”, the “gcPBM binding intensity (ln)” value is 10.2.
Under “TAAAGTTATGCAATAACACACATATACAATACATAT [CACACA_site6698]” stands 9.92; under “AATATTTATATAAATGCATGCTGATACAACAGTCTT [TGCATGCA_site21]”, 9.63.
As for “AGGTATGTCTATAAATGTACATATGAGTTCAATTTC [XGTACX_site2244]”, the “gcPBM binding intensity (ln)” value was found to be 9.65.
Under “CACAGTGATATAAAAACACACATGAATTCTAATTTC [CACACA_site6884]” stands 9.77; under “CATAAAAATATTAATAAACACACAATCAGATATTGA [CACACA_site9032]”, 10; under “AAATATATATAAACAAGTACATATTTAAAAAAAGGA [XGTACX_site2631]”, 9.83.
Under “CCCTCCCCATGTTTAGTGCAAAAATATTTGAAATTG [GTGCAC_site9873]” stands 10.2; under “TGAATAAATATATATACACACATATCTGTATTTATT [CACACA_site4991]”, 9.86; under “TATATATATACCAACACACATACATATATATATATA [CACACA_site1795]”, 9.93.
As to “AAATTTGGCAGACACACACACACACGCACACGCACA [CACACA_site6423]”, the “gcPBM binding intensity (ln)” value was 11.5.
Under “TATGAAATTAGAATTACACACAGGAAAATAAAATGC [CACACA_site6822]” stands 10; under “AAAAAAAATCAAATGGGTACTTATTCTTAATAATAT [XGTACX_site3792]”, 9.46; under “TTTGCGTAGAAATGTGTGCACTGATATTTATAATAA [GTGCAC_site9526]”, 9.84.
Under “TGAACTCATAGGAAAACACACATATGGGTAATATAT [CACACA_site187]” stands 9.79; under “ATTTTCCTTTTACCACGTACACATAAAAACGTTATA [XGTACX_site3595]”, 9.75; under “ATCATAAATATAGCAACACACGGATTACATAAAATA [CACACA_site2796]”, 9.85.
Under “TTAAAAAAATAATTAACACACACATGTATATCTATA [CACACA_site9026]” stands 9.92; under “TTGTAATAAATAAAAGTGCAGATATGGTTCCACTAA [GTGCAC_site9942]”, 9.53; under “ATAAATATATTTAAATGTACATAATATATATATATA [XGTACX_site5137]”, 9.65.
As to TATATATATTTAAAGGTGCAGATGCCAGTGTATATT, the “gcPBM binding intensity (ln)” value turned out to be 9.73.
Regarding “AATGAACTCACGAGCACACACACACCGATATATATA [CACACA_site4710]”, the “gcPBM binding intensity (ln)” value is 11.
For the sequence “ATATATACATACAAATTAATTACGAGGAATATATTA [XGTACX_negctrl_site417]”, the “gcPBM binding intensity (ln)” value stood at 9.69.
On to “ACATATTCATATGGAAGTACGATAATGTAGTCATAT [XGTACX_site7080]”, for which the “gcPBM binding intensity (ln)” value turned out to be 9.72.
Under “TATACATATATATACACACACACATATATATATATA [CACACA_site1299]” stands 10.1.
Under “GGAACTTATTTTTATACACACATATGTGCATATTAT [CACACA_site629]” stands 10.1.
Under “GTAAAAAAATTAAAAATTAACAAGGAATTAAGTATA [CACACA_negctrl_site1688]” stands 9.64; under “ATAAGAAAATCAAAAAGTACTTTTTACAAAGATAAA [XGTACX_site824]”, 9.6; under “ATATACTATATATAATGTACATATATATTATTATGC [XGTACX_site2957]”, 9.72.
“TAGTTTTTTATATATTGTACAAATAATATATTATAT [XGTACX_site2564]”: the “gcPBM binding intensity (ln)” value amounted to 9.66.
Under “ATTTTATGATATATTTGTACTTAACATTTGGATATA [XGTACX_site5888]” stands 9.6.
Under AGTGACACCAAAGGGGTGCAATGAAATTAAAAATAT stands 9.6; under “TTTATTCATTTCTAAAAATATTAAAATAGAATGAAT [CACACA_negctrl_site325]”, 9.29; under “AAACAAAAAATATATACACACTAAACATAAAAAAAA [CACACA_site4185]”, 9.97.
On to “TAAAAAAAAATAAATGGTACACAATTAAATGTTTAT [XGTACX_site5255]”, for which the “gcPBM binding intensity (ln)” value was 9.67.
As to “AAAAAAATATATATATATATATATATATATTTATAT [XGTACX_negctrl_site86]”, the “gcPBM binding intensity (ln)” value stood at 9.35.
Under “TCTTTTTTTAATAAAACATGCAATATTATATATGTA [TGCATGCA_site236]” stands 9.55.
Consider “TAAATTCTTTAAAACTTTAAAACAAAAAAAAAAAAA [CACACA_negctrl_site1078]”, for which the “gcPBM binding intensity (ln)” value amounted to 9.11.
Under “GTAATTATTAATAAAACATGCGTATAAAATTTTCTC [TGCATGCA_site50]” stands 9.65; under “TTTTTAATCTCATATGTATAATATATTTTTATTAAA [XGTACX_negctrl_site236]”, 9.26; under “AATTTTAGATTTAGCACACATTTTTTTTTTTTTTTT [CACACA_site6105]”, 9.69.
With “TTCAAAGGGAAATTAACACACACATATATATATATA [CACACA_site8777]”, the “gcPBM binding intensity (ln)” value came to 9.89.
On to “TTCAATGCTAATTTATGTACATATGTATATAAAATA [XGTACX_site8335]”, for which the “gcPBM binding intensity (ln)” value stood at 9.4.
For the sequence “CCCAAAAAAAATTTATGTACTTATTAAATATATATA [XGTACX_site6455]”, the “gcPBM binding intensity (ln)” value came out at 9.36.
